Key:
[1] = test system: ERα expression in MDA-MB231 cells; details: cited from earlier work
MDA-MB231 cells [2] = details: positive control, 5 μM 72 h
MDA-MB231 cells [3] = details: tamoxifen only, 48 h

Nc1ncn([C@H]2C[C@H](O)[C@@H](CO)O2)c(=O)n1 [5aza-2-deoxycytidine]
expression of ERα [1]: reinduce the expression of ERα

Nc1ncn([C@@H]2O[C@H](CO)[C@@H](O)[C@H]2O)c(=O)n1 [5-azacytidine]
overall percentage of methylation of the genome (MDA-MB231 cells [2]): reduce the overall percentage of methylation of the genome

CC/C(=C(\c1ccccc1)c1ccc(OCCN(C)C)cc1)c1ccccc1 [tamoxifen]
sensitivity of the cells to tamoxifen alone (MDA-MB231 cells [3]): insensitive

— patent US20220031652A1, “USE OF AN ORGANOMETALLIC COMPOUND AS A DNA-DEMETHYLATING AGENT” (UNIVERSITE DE LORRAINE, priority 2018, published 2022)
